Among the data in the supplement of paper PMC4604168 (melanoma cell lines) are cell count values, retold here.

This is one part of the list. Many values rest on one well or one pass, so single values are uncertain.
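Further: cells treated in 1,536-well plates, then fixed and DAPI-stained, with nuclei counted from automated high-throughput microscope images.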

The subject of the first assay is SkMel28. Briefly: cell count relative to DMSO control; melanoma cells; higher = more viable cells. To be noted: library dose: standard library concentration; 72 h.
For the molecule `O=c1[nH]nc(Sc2ncc([N+](=O)[O-])s2)n1-c1ccc2c(c1)OCCO2` + c1cc(-c2cnn3cc(-c4ccc(OCCN5CCCCC5)cc4)cnc23)ccn1 [Dorsomorphin] (first compound 1 µM, partner dose 2 µM), the cell count amounted to 66.6%.

Consider `O=c1[nH]nc(Sc2ncc([N+](=O)[O-])s2)n1-c1ccc2c(c1)OCCO2` + COc1ccc2c(c1)CCC1C2CCC2(C)C(NCCCCCCN3C(=O)C=CC3=O)CCC12 [U73122] (first compound 1 µM, partner dose 2 µM), for which the cell count amounted to 82.2%.

Consider `C[C@@H]1CCN(C(=O)CC#N)C[C@@H]1N(C)c1ncnc2[nH]ccc12` + Oc1nc(-c2ccc(C(F)(F)F)cc2)nc2c1CSCC2 [XAV939] (first compound 5 µM, partner dose 10 µM), for which the cell count amounted to 62.5%.

For a further assay, the system named is SkMel2. The assay is described as above. Conditions: library dose: standard library concentration; 72 h.
As to `O=c1[nH]nc(Sc2ncc([N+](=O)[O-])s2)n1-c1ccc2c(c1)OCCO2` + COc1cc(N2CCC(N3CCN(C)CC3)CC2)ccc1Nc1ncc(Cl)c(Nc2ccccc2S(=O)(=O)C(C)C)n1 [NVP-TAE684] (first compound 1 µM, partner dose 0.4 µM), the cell count came to 79%.

As for `O=c1[nH]nc(Sc2ncc([N+](=O)[O-])s2)n1-c1ccc2c(c1)OCCO2` + N#Cc1c(O)c2c(-c3ccc(-c4ccccc4O)cc3)csc2[nH]c1=O [A769662] (first compound 1 µM, partner dose 10 µM), the cell count amounted to 107%.

Turning to `O=c1[nH]nc(Sc2ncc([N+](=O)[O-])s2)n1-c1ccc2c(c1)OCCO2` + O=c1cc(-c2cccc3c2Sc2ccccc2S3)oc(N2CCOCC2)c1 [KU55933] (first compound 1 µM, partner dose 5 µM), the cell count was found to be 84.4%.

Consider `O=C(Nc1cccc(Cl)c1)Nc1ncc(CCNc2ncnc3ccsc23)s1` + CC(C)CCN1c2nc(Nc3cc(F)c(O)c(F)c3)ncc2N(C)C(=O)C1C [BID1870] (first compound 0.004 µM, partner dose 1 µM), for which the cell count was 60.1%.

Molecule `Cn1cncc1[C@@](N)(c1ccc(Cl)cc1)c1ccc2c(c1)c(-c1cccc(Cl)c1)cc(=O)n2C` [tipifarnib] + COc1cc(N2CCC(N3CCN(C)CC3)CC2)ccc1Nc1ncc(Cl)c(Nc2ccccc2S(=O)(=O)C(C)C)n1 [NVP-TAE684] (first compound 0.05 µM, partner dose 0.4 µM) yielded a cell count of 47.9%.

In turn, `C[C@@H]1CCN(C(=O)CC#N)C[C@@H]1N(C)c1ncnc2[nH]ccc12` + CCCCCCCCCCCC1=C(O)C(=O)C=C(O)C1=O [Embelin] (first compound 5 µM, partner dose 6 µM) came in with a cell count of 84%.

Molecule `C[C@@H]1CCN(C(=O)CC#N)C[C@@H]1N(C)c1ncnc2[nH]ccc12` + Cc1cc([N+](=O)[O-])ccc1NS(=O)(=O)c1cc(Cl)ccc1Cl [FH535] (first compound 5 µM, partner dose 5 µM) returned a cell count of 87.6%.

Take `O=c1[nH]nc(Sc2ncc([N+](=O)[O-])s2)n1-c1ccc2c(c1)OCCO2` + COc1ccc(COc2ccc(Cc3cnc(N)nc3N)cc2OC)cc1 [GW2580] (first compound 1 µM, partner dose 5 µM): the cell count was determined as 114%.

On to `O=C(O)c1ccc(-c2c[nH]c3ncc(-c4ccccc4)cc23)cc1C1CCCC1` + Oc1cc(-c2nc(-c3ccccc3)[nH]c2-c2ccncc2)ccc1Cl [L779450] (first compound 0.8 µM, partner dose 1 µM), for which the cell count stood at 29.3%.

`CC1(C)NC(=O)N(c2ccc([N+](=O)[O-])c(C(F)(F)F)c2)C1=O` [nilutamide] + COc1ccc(-c2ccc3c(N4CCOCC4)nc(N4C[C@@H](C)O[C@@H](C)C4)nc3n2)cc1CO [KU0063794] (first compound 5 µM, partner dose 0.1 µM) gave a cell count of 91.4%.

Consider `O=c1[nH]nc(Sc2ncc([N+](=O)[O-])s2)n1-c1ccc2c(c1)OCCO2` + C[C@@H](Oc1cc(-c2cnn(C3CCNCC3)c2)cnc1N)c1c(Cl)ccc(F)c1Cl [Crizotinib] (first compound 1 µM, partner dose 1 µM), for which the cell count worked out at 85.4%.

Molecule `O=C(Nc1cccc(Cl)c1)Nc1ncc(CCNc2ncnc3ccsc23)s1` + Cc1cc([N+](=O)[O-])ccc1NS(=O)(=O)c1cc(Cl)ccc1Cl [FH535] (first compound 0.004 µM, partner dose 5 µM) came in with a cell count of 54.7%.

Turning to `O=c1[nH]nc(Sc2ncc([N+](=O)[O-])s2)n1-c1ccc2c(c1)OCCO2` + O=S(=O)(c1ccccc1)N(CC(F)(F)F)c1ccc(C(O)(C(F)(F)F)C(F)(F)F)cc1 [T0901317] (first compound 1 µM, partner dose 7 µM), the cell count was 83.2%.

`COc1cc(Nc2ncc(F)c(Nc3ccc4c(n3)NC(=O)C(C)(C)O4)n2)cc(OC)c1OC` [Tamatinib] + O=c1cc(-c2cccc3c2Sc2ccccc2S3)oc(N2CCOCC2)c1 [KU55933] (first compound 2 µM, partner dose 5 µM): the cell count amounted to 81.2%.

Regarding `O=C(O)c1ccc(-c2c[nH]c3ncc(-c4ccccc4)cc23)cc1C1CCCC1` + O=C1NC(=O)/C(=C/c2ccc(-c3ccc(F)cc3O)o2)S1 [AS252424] (first compound 0.8 µM, partner dose 5 µM), the cell count came out at 67.6%.

`O=c1[nH]nc(Sc2ncc([N+](=O)[O-])s2)n1-c1ccc2c(c1)OCCO2` + CCCCCCCCCCCC1=C(O)C(=O)C=C(O)C1=O [Embelin] (first compound 1 µM, partner dose 6 µM) displayed a cell count of 76.8%.

Regarding `O=c1[nH]nc(Sc2ncc([N+](=O)[O-])s2)n1-c1ccc2c(c1)OCCO2` + Oc1cc(-c2nc(-c3ccccc3)[nH]c2-c2ccncc2)ccc1Cl [L779450] (first compound 1 µM, partner dose 1 µM), the cell count was determined as 26.4%.

Molecule `O=c1[nH]nc(Sc2ncc([N+](=O)[O-])s2)n1-c1ccc2c(c1)OCCO2` + Oc1nc(-c2ccc(C(F)(F)F)cc2)nc2c1CSCC2 [XAV939] (first compound 1 µM, partner dose 10 µM) registered a cell count of 106%.

Molecule `O=c1[nH]nc(Sc2ncc([N+](=O)[O-])s2)n1-c1ccc2c(c1)OCCO2` + COC(=O)c1sccc1S(=O)(=O)Nc1ccc(Nc2ccccc2)cc1OC [GSK0660] (first compound 1 µM, partner dose 5 µM) gave a cell count of 97%.

Molecule `O=C(Nc1cccc(Cl)c1)Nc1ncc(CCNc2ncnc3ccsc23)s1` + COc1ccc2c(c1)CCC1C2CCC2(C)C(NCCCCCCN3C(=O)C=CC3=O)CCC12 [U73122] (first compound 0.004 µM, partner dose 2 µM) gave a cell count of 98.6%.

In turn, `COc1cc(Nc2ncc(F)c(Nc3ccc4c(n3)NC(=O)C(C)(C)O4)n2)cc(OC)c1OC` [Tamatinib] + Oc1cc(-c2nc(-c3ccccc3)[nH]c2-c2ccncc2)ccc1Cl [L779450] (first compound 2 µM, partner dose 1 µM) gave a cell count of 7.57%.

`O=c1[nH]nc(Sc2ncc([N+](=O)[O-])s2)n1-c1ccc2c(c1)OCCO2` + O=C(Nc1ccccc1)c1cc([N+](=O)[O-])ccc1Cl [GW9662] (first compound 1 µM, partner dose 10 µM) yielded a cell count of 73.6%.

Consider `COc1cc(Nc2ncc(F)c(Nc3ccc4c(n3)NC(=O)C(C)(C)O4)n2)cc(OC)c1OC` [Tamatinib] + COc1cc2ncnc(Nc3ccc(Oc4ccccc4)cc3)c2cc1OC [SrcI1] (first compound 2 µM, partner dose 10 µM), for which the cell count was 74.3%.

As to `O=c1[nH]nc(Sc2ncc([N+](=O)[O-])s2)n1-c1ccc2c(c1)OCCO2` + CC(C)CCN1c2nc(Nc3cc(F)c(O)c(F)c3)ncc2N(C)C(=O)C1C [BID1870] (first compound 1 µM, partner dose 1 µM), the cell count turned out to be 82.7%.

On to `O=C(O)c1ccc(-c2c[nH]c3ncc(-c4ccccc4)cc23)cc1C1CCCC1` + COC(=O)c1sccc1S(=O)(=O)Nc1ccc(Nc2ccccc2)cc1OC [GSK0660] (first compound 0.8 µM, partner dose 5 µM), for which the cell count was 72.8%.

In the case of `O=c1[nH]nc(Sc2ncc([N+](=O)[O-])s2)n1-c1ccc2c(c1)OCCO2` + Cn1cc(/C=C2\C(=O)Nc3cccnc32)c2ccccc21 [GW441756] (first compound 1 µM, partner dose 2 µM), the cell count turned out to be 108%.

In the case of `O=c1[nH]nc(Sc2ncc([N+](=O)[O-])s2)n1-c1ccc2c(c1)OCCO2` + COc1ccc(-c2ccc3c(N4CCOCC4)nc(N4C[C@@H](C)O[C@@H](C)C4)nc3n2)cc1CO [KU0063794] (first compound 1 µM, partner dose 0.1 µM), the cell count worked out at 82.4%.

`Cn1cncc1[C@@](N)(c1ccc(Cl)cc1)c1ccc2c(c1)c(-c1cccc(Cl)c1)cc(=O)n2C` [tipifarnib] + COc1ccc2c(c1)CCC1C2CCC2(C)C(NCCCCCCN3C(=O)C=CC3=O)CCC12 [U73122] (first compound 0.05 µM, partner dose 2 µM) had a cell count of 84.9%.

The molecule `O=c1[nH]nc(Sc2ncc([N+](=O)[O-])s2)n1-c1ccc2c(c1)OCCO2` + CCN(CC)CCCCNc1ncc2cc(-c3cc(OC)cc(OC)c3)c(NC(=O)NC(C)(C)C)nc2n1 [PD173074] (first compound 1 µM, partner dose 0.5 µM) yielded a cell count of 97.1%.

`O=c1[nH]nc(Sc2ncc([N+](=O)[O-])s2)n1-c1ccc2c(c1)OCCO2` + COc1cc2ncnc(Nc3ccc(Oc4ccccc4)cc3)c2cc1OC [SrcI1] (first compound 1 µM, partner dose 10 µM) displayed a cell count of 101%.
